# Laboratory results: PubChem BioAssay AID493208 (National Center for Advancing Translational Sciences (NCATS), 2011)
# The campaign covered roughly 44,000 compounds. About 340 (0.77%) were called active. Inconclusive results (about 5%) are left out. The call rests on the fitted dose curve; in most records, active means well fitted inhibition curve with a large enough effect; inconclusive means small, poorly fitted or top-dose-only effect; inactive means flat fitted curve, though single readings scatter. This is one part of the list.
# Assay: Acumen qHTS Assay for Inhibitors of the mTORC1 Signaling Pathway in MEF (Tsc2-/-, p53-/-) Cells: Sytravon;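 further: plate controls were DMSO for no effect and rapamycin for full effect; nearly all actives have a fitted effect of over 50% in size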
# Details: phospho-rpS6 immunofluorescence/PI, 24 h; series mostly up to 38.3 µM; activity change, negative = inhibition: at the top concentration
# Procedure, shortened: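 Immunofluorescence of rpS6 phosphorylation in Tsc2-/-, p53-/- MEFs after 24 h compound exposure, normalized to propidium iodide signal. Activity is expressed as % positive cells, thresholded with 7.5 nM rapamycin.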
row,Compound,"activity change, negative = inhibition"
1,CC(=O)c1sc(NC(=O)c2c(-c3ccccc3)c(-c3ccccc3)nn(C)c2=O)nc1C,inactive: -4.49%
2,CCN1CCN(C(=O)c2cnn(-c3ccc(F)cc3F)c2C2CCN(C(=O)OC(C)(C)C)CC2)CC1,inactive: -0.658%
3,CCN(CC)C(=O)Cn1c(=O)n(-c2ccc(C)c(C)c2)c(=O)c2c(C)c(C(=O)N(CC)CC)sc21,inactive: -0.467%
4,CCCCCN1C(C(=O)c2ccccc2)=C(NC(=O)c2ccc(C)cc2)c2ccccc2S1(=O)=O,inactive: 3.95%
5,CC1CCc2onc(C(=O)N3CCN(c4ccc(F)cc4)CC3)c2C1 (configuration not stated),inactive: -6.69%
6,CC1CCC(N2CC(=O)N(CCC3=CCCCC3)C(c3ccc(F)cc3)C2=O)CC1 (configuration not stated),inactive: 10.5%
7,COc1ccc(OC)c(NC(=O)c2cnc(Nc3ccc(C)c(Cl)c3)c3ccccc23)c1,inactive: -13.2%
8,COc1cc(Cl)c(NC(=O)CCc2nc3cccnc3n2-c2ccccc2)c(OC)c1,inactive: 4.08%
9,CC(=O)Nc1c(C)nn(-c2ccccc2)c1N1CCC(C(=O)NCc2cccc(Cl)c2)CC1,inactive: 5.8%
10,CC1=C(C(=O)Nc2ccc(Cl)cc2)C(c2cccs2)n2nc(SCc3cccc(C)c3)nc2N1 (configuration not stated),inactive: 4.32%
11,O=C(NCCc1nc2ccccc2n1Cc1c(F)cccc1Cl)c1ccco1,inactive: -2.6%
12,O=C(CSc1nc2cc3ccccc3cc2[nH]1)Nc1ccc(F)cc1,inactive: -3.55%
13,CC(C)(C)OC(=O)N1CCC(c2c(C(=O)N3CCN(c4ccccc4F)CC3)cnn2-c2ccccc2Cl)CC1,inactive: 7.2%
14,Cc1ccc(NC(=O)c2cnc(SCC(=O)N3CCCc4ccccc43)n(C)c2=O)cc1,inactive: -2.39%
15,CCOc1ccc(NC(=O)CCNS(=O)(=O)c2ccc3c(c2)CCCC(=O)N3)cc1,inactive: 2%
16,CC(=O)N1CCc2cc(S(=O)(=O)NC(CC(C)C)C(=O)NCc3ccccc3Cl)ccc21 (configuration not stated),inactive: -0.461%
17,Cc1c(NC(=O)c2cc(-c3ccccc3O)on2)c(=O)n(-c2ccccc2)n1C,inactive: 10.4%
18,CCOC(=O)CCC(=O)Nc1nnc2n1CCS2,inactive: 1.31%
19,O=c1c(NCc2ccccc2Cl)nccn1-c1ccccc1,inactive: 8.54%
20,Cc1ccc(C(=O)Nc2nnc(S(=O)(=O)N3CCCCCC3)s2)cc1,inactive: -0.631%
21,COc1ccc(CNC(=O)CCc2c(C)c3cc4c(C)c(C)oc4cc3oc2=O)cc1,inactive: 1.84%

row,Compound,"activity change, negative = inhibition"
1,CCCCCOc1ccc(Cn2c(=O)oc3ccc(C)cc32)cc1OC,inactive: -10.9%
2,CCC(=O)N1CCc2cc(Br)cc(S(=O)(=O)N3CCC(C(=O)Nc4ccccc4F)CC3)c21,inactive: -17%
3,Cc1cc(C)cc(C(=O)n2nc(C)c(S(=O)(=O)N3CCCCCC3)c2C)c1,inactive: -2.4%
4,O=C(Nc1ccc(Cl)cc1Cl)c1cc(S(=O)(=O)N2CCCCCC2)ccc1F,inactive: 9.63%
5,O=C1CC(c2cc(F)cc(F)c2)c2cc3c(cc2N1)OCO3 (configuration not stated),inactive: -23.4%
6,Cc1c(C(=O)N2CCN(c3ccc(F)cc3)CC2)sc2nc3n(c(=O)c12)CCC3,inactive: -8.69%
7,O=C(Cn1ccn(-c2ccc(F)cc2)c(=O)c1=O)Nc1ccccc1C(F)(F)F,inactive: 3.84%
8,CCCCc1nn2c(=O)cc(COC(=O)c3ccccc3NC(=O)c3cccs3)nc2s1,inactive: 3.41%
9,CCCOc1ccc(NC(=O)CC2C(=O)N(c3ccc(C)cc3)C(=O)N2CCc2ccncc2)cc1 (configuration not stated),inactive: -10.4%
10,CC(C)Cn1c(C2CC(=O)N(c3ccccc3Cl)C2)nc2ccccc21 (configuration not stated),inactive: -2.7%
11,Cc1cccc(NC(=O)Cn2nnc(C(=O)NCc3ccco3)c2N)c1,inactive: 1.42%
12,Cc1oc(-c2ccc(C(=O)NCCN(C)C)cc2)nc1CS(=O)(=O)c1ccccc1,inactive: -5.28%
13,O=C(Cn1nc(-c2ccccc2)nc(Cc2ccccc2)c1=O)Nc1ccc(Cl)cc1,inactive: -3.28%
14,Cc1cccc(-n2c(N)cc(=O)nc2SCC(=O)Nc2ccc(F)cc2)c1C,inactive: 1.51%
15,COc1ccc(Br)cc1C(=O)Nc1ccc(-c2nc3ncccc3o2)cc1C,inactive: -0.45%
16,Cc1ccc(C(=O)NCC(=O)OCc2cc(=O)n3ccsc3n2)cc1,inactive: -11.3%
17,CCc1ccc(NC(=O)CSc2ccc3nc(-c4ccc(OC)cc4)cn3n2)cc1,inactive: 3.58%
18,COC(=O)CSc1nc2sc3c(c2c(=O)n1-c1ccc(C)cc1)CC(C(C)C)OC3 (configuration not stated),inactive: -4.42%
19,CCN(CC)S(=O)(=O)c1ccc2c(c1)N(CC(=O)Nc1ccc(OC)cc1)C(=O)CS2,inactive: -0.141%
20,Cc1ccccc1CNC(=O)c1oc2c(c1C)-c1nn(Cc3ccc(Cl)cc3)cc1CC2,inactive: 3.12%
21,CCOc1ccc(NC(=O)C2CCCN(c3cnccn3)C2)cc1 (configuration not stated),inactive: 4.6%

row,Compound,"activity change, negative = inhibition"
1,CCOc1ccc(Cl)cc1CNCCCSc1nnnn1C,inactive: -0.349%
2,COC(=O)c1ccccc1NC(=O)c1cnn(-c2ccc(F)cc2)c1-n1cccc1,inactive: 1.22%
3,Cc1ccc(CN(C(=O)COc2ccccc2[N+](=O)[O-])c2ccccn2)cc1,inactive: 0.0128%
4,CCCN(CCC)CCNC(=O)CN1C(=O)COc2ccc(S(=O)(=O)N3CCOCC3)cc21,inactive: 2.75%
5,Cc1cccc(OCC(=O)NCCc2nc3ccccc3[nH]2)c1C,inactive: -1.18%
6,O=C(NCc1ccccc1Cl)C1CCN(C(=O)N2CCOc3ccccc32)CC1,inactive: 13.9%
7,CCC(CC)C(=O)Nc1nnc(S(=O)(=O)N2CCc3ccccc32)s1,inactive: 1.83%
8,CCOc1ccc(-n2nc(CO)c(C(=O)NCc3ccccn3)n2)cc1,inactive: 4.2%
9,Cc1ccc(OCCCCn2cnc3ccccc32)cc1,inactive: -1.95%
10,CCN(CC)S(=O)(=O)c1ccc2c(c1)nc(CN(C)C(=O)Nc1ccc(F)cc1)n2C,inactive: 0%
11,O=C(Nc1ccc(C(=O)N2CCCCC2)cc1)c1nsc2ccccc12,inactive: 0.839%
12,COc1cc(Cl)c(C)cc1NC(=O)CCc1c(C)nc2c3cccnc3nn2c1C,inactive: -16.1%
13,O=C(Nc1nc2n(n1)C(c1ccccc1)C=C(c1ccccc1)N2)c1ccccc1 (configuration not stated),inactive: -5.32%
14,CS(=O)(=O)c1ccccc1-c1nnc(NC(=O)c2ccc3c(c2)OCCO3)o1,inactive: -12.3%
15,COc1ccc(CNC(=O)CSc2n[nH]c(-c3ccc(F)cc3)n2)cc1,inactive: -5.93%
16,Cc1ccc(C)c(CN2C(=O)c3ccccc3S(=O)(=O)c3ccc(C(=O)Nc4cc(F)ccc4F)cc32)c1,inactive: -13.1%
17,COc1ccc(NC(=O)c2nnn(CC(=O)Nc3c(C)cc(C)cc3C)c2N)cc1OC,inactive: 6.24%
18,Fc1ccc(Nc2nc(SCc3cccc(Cl)c3)nc3ccccc23)cc1,inactive: -10.2%
19,COc1ccc(CNC(=O)CN(c2ccc(C)cc2)S(=O)(=O)c2c(C)noc2C)cc1,inactive: -0.828%
20,COc1ccc(CNC(=O)C(CCSC)NS(=O)(=O)c2ccc3c(c2)oc(=O)n3C)cc1 (configuration not stated),inactive: -6.51%
